Laboratory results: US10435371B2, “Multifunctional aminoquinoline therapeutic agent” (LOHOCLA RESEARCH CORPORATION, priority 2014, dated 2019)

Tests used:
[1] = test system: rats treated with cisplatin; test: Reversal of cisplatin-induced neuropathic pain (von Frey mechanical pain threshold); type: in vivo, rat; conditions: cisplatin i.p. 7 mg/kg total, day 14; 50 mg/kg oral; 1 and 2 hours; FIG. 6
[2] = molecular target: D2 (Dopamine Rs) (Homo sapiens, UniProt P14416); test: PDSP radioligand binding
[3] = molecular target: 5-HT2B (Serotonin Rs) (Homo sapiens, UniProt P41595); test: PDSP radioligand binding
[4] = molecular target: 5-HT1B (Serotonin Rs) (Homo sapiens, UniProt P28222); test: PDSP radioligand binding
[5] = molecular target: D1 (Dopamine Rs) (Homo sapiens, UniProt P21728); test: PDSP radioligand binding
[6] = molecular target: mGluR5 (Metabotropic Glutamate Rs) (Homo sapiens, UniProt P41594); test: PDSP radioligand binding
[7] = molecular target: Serotonin Transporter (Homo sapiens, UniProt P31645); test: PDSP radioligand binding
[8] = molecular target: T1, M2 (Muscarinic Cholinergic Rs) (Homo sapiens, UniProt P08172); test: PDSP radioligand binding
T1 sequence (P08172 1-466): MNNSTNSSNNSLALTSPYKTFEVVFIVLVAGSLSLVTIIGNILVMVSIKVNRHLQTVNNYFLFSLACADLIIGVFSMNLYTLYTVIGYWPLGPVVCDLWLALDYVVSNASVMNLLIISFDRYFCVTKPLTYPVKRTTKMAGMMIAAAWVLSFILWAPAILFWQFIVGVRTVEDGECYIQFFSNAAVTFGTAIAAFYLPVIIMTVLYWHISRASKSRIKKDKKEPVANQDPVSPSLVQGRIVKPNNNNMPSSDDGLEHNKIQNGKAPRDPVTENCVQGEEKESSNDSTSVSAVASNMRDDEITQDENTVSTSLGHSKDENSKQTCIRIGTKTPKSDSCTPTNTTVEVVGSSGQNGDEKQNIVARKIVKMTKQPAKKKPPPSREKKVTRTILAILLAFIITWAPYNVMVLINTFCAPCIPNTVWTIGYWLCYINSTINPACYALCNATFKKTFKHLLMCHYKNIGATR

[9] = molecular target: V1A (Vasopressin) (Homo sapiens, UniProt P37288); test: PDSP radioligand binding
[10] = molecular target: T2, 5-HT3 (Serotonin Rs) (Homo sapiens, UniProt P46098); test: PDSP radioligand binding
T2 sequence (P46098 24-478): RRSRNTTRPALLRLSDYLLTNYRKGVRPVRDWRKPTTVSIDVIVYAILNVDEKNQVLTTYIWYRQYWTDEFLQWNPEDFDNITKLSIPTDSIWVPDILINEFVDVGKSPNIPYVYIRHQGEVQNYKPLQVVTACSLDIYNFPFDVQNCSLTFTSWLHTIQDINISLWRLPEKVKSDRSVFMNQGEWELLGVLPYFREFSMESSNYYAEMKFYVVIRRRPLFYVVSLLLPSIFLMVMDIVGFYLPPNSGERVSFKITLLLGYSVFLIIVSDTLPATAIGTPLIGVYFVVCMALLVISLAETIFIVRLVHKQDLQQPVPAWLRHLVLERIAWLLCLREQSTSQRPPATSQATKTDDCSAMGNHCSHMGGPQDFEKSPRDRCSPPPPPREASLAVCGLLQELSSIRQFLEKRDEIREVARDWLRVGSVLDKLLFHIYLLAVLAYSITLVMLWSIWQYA

[11] = molecular target: CaV1.2 (Voltage sensitive Ca** channel (L-type)) (Homo sapiens, UniProt Q13936); test: PDSP radioligand binding; conditions: Table 3, the 6th table r22c0; read-out: Ki, CaV1.2 (lack of affinity)
[12] = test system: rats treated with Complete Freund's Adjuvant; test: Reversal of CFA-induced neuropathic pain (von Frey mechanical pain threshold); type: in vivo, rat; conditions: 48 h after CFA; 50 mg/kg; 1 hour; DCUKA n=17, BCUKA n=6; FIG. 8
[13] = molecular target: β1 (Adrenergic Rs (beta adrenergic)) (Homo sapiens, UniProt P08588); test: PDSP radioligand binding
[14] = molecular target: BDZ site, GABA-A Receptor; test: PDSP radioligand displacement, [^3H]Flunitrazepam; set-up: species or system rat; conditions: read-out: Binding constant Ki, BDZ site, GABA-A Receptor
[15] = molecular target: β2 (Adrenergic Rs (beta adrenergic)) (Homo sapiens, UniProt P07550); test: PDSP radioligand binding
[16] = molecular target: EP2 (Prostaglandin Rs) (Homo sapiens, UniProt P43116); test: PDSP radioligand binding; conditions: Table 3, the 6th table r12c1; read-out: Ki, EP2 (lack of affinity)
[17] = molecular target: T3, NOP (Homo sapiens, UniProt P41146); conditions: PDSP historical reference value, [^3H]N/OFQ; cited from earlier work
T3 construct: expressed in transfected cells; host or cells: HEKT, transient

[18] = molecular target: BDZ site, GABA-A Receptor; conditions: read-out: Kd for [^3H] Compound binding, GABAA/BZP (rat brain); radioligand, PDSP website; cited from earlier work
[19] = molecular target: GABA site, GABA-A Receptor; conditions: radioligand, PDSP website; read-out: Kd for [^3H] Compound binding, GABAA (rat brain); cited from earlier work

Sequence of D1 (Dopamine Rs) (P21728 whole entry): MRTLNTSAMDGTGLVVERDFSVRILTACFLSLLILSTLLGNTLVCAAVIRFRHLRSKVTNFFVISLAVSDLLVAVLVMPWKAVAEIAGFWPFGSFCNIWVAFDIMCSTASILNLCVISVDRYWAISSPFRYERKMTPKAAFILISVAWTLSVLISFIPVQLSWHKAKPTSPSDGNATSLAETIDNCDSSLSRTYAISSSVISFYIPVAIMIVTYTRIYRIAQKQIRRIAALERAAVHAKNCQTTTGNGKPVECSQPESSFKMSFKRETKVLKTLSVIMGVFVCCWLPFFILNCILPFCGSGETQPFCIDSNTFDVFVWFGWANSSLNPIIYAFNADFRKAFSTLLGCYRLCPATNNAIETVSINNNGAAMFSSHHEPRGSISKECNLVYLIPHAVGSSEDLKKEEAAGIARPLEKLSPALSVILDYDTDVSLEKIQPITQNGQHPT
Sequence of mGluR5 (Metabotropic Glutamate Rs) (P41594 21-1212): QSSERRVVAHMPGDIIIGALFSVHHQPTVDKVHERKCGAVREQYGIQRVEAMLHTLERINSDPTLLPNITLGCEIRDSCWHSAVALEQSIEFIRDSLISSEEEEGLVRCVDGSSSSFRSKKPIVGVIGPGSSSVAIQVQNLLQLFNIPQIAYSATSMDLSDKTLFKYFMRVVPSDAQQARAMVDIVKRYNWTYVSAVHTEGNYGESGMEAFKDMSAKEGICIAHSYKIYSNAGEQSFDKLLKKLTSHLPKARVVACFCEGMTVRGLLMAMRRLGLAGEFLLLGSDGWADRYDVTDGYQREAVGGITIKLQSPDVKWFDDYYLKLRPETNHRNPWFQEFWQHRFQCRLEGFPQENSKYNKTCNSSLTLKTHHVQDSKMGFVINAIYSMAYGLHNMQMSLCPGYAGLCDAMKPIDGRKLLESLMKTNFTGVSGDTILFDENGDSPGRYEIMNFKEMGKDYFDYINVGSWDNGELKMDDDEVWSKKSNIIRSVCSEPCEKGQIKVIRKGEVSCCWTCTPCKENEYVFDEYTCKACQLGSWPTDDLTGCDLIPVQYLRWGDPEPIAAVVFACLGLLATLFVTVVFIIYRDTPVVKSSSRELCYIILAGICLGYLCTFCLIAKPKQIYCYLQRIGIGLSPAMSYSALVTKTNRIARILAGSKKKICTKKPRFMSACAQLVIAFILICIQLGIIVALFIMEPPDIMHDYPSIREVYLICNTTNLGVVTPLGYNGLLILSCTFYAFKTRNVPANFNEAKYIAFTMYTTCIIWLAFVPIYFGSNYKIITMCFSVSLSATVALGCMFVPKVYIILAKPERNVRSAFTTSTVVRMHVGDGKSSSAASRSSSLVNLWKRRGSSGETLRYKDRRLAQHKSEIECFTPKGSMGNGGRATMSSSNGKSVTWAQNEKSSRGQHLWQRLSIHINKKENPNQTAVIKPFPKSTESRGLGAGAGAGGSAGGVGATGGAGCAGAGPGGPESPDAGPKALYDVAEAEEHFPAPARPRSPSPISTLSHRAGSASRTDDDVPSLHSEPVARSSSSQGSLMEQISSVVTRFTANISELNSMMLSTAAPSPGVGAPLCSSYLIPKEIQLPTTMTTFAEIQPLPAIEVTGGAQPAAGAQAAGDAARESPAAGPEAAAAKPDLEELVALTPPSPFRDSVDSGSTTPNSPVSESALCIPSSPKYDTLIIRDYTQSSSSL
Sequence of 5-HT1B (Serotonin Rs) (P28222 whole entry): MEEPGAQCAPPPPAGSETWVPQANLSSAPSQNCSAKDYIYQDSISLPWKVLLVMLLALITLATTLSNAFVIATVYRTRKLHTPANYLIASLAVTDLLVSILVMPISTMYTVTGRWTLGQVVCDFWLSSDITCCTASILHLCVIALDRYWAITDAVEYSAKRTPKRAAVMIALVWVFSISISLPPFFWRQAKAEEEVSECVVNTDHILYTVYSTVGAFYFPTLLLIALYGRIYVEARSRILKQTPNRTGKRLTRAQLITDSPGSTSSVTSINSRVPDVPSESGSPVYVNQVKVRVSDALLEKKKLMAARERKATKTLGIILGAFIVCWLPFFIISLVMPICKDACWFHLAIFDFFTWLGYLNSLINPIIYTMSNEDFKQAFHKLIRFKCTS
Sequence of Serotonin Transporter (P31645 whole entry): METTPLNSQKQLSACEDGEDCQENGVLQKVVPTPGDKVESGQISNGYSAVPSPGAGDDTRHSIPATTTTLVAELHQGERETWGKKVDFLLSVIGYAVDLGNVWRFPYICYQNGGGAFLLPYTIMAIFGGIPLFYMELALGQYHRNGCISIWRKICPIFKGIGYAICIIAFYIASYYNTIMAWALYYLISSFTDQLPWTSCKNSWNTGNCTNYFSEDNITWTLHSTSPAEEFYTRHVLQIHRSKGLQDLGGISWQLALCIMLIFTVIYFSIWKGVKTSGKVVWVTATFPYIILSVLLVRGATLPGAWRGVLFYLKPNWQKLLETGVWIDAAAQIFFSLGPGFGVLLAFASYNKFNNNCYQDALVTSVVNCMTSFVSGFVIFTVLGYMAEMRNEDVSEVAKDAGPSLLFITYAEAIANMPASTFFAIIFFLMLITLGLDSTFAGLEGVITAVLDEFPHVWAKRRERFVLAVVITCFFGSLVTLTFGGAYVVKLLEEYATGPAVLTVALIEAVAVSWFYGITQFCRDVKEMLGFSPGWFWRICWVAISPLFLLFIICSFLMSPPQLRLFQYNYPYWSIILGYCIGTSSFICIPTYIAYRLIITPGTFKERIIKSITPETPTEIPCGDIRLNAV
Sequence of CaV1.2 (Voltage sensitive Ca** channel (L-type)) (Q13936 whole entry): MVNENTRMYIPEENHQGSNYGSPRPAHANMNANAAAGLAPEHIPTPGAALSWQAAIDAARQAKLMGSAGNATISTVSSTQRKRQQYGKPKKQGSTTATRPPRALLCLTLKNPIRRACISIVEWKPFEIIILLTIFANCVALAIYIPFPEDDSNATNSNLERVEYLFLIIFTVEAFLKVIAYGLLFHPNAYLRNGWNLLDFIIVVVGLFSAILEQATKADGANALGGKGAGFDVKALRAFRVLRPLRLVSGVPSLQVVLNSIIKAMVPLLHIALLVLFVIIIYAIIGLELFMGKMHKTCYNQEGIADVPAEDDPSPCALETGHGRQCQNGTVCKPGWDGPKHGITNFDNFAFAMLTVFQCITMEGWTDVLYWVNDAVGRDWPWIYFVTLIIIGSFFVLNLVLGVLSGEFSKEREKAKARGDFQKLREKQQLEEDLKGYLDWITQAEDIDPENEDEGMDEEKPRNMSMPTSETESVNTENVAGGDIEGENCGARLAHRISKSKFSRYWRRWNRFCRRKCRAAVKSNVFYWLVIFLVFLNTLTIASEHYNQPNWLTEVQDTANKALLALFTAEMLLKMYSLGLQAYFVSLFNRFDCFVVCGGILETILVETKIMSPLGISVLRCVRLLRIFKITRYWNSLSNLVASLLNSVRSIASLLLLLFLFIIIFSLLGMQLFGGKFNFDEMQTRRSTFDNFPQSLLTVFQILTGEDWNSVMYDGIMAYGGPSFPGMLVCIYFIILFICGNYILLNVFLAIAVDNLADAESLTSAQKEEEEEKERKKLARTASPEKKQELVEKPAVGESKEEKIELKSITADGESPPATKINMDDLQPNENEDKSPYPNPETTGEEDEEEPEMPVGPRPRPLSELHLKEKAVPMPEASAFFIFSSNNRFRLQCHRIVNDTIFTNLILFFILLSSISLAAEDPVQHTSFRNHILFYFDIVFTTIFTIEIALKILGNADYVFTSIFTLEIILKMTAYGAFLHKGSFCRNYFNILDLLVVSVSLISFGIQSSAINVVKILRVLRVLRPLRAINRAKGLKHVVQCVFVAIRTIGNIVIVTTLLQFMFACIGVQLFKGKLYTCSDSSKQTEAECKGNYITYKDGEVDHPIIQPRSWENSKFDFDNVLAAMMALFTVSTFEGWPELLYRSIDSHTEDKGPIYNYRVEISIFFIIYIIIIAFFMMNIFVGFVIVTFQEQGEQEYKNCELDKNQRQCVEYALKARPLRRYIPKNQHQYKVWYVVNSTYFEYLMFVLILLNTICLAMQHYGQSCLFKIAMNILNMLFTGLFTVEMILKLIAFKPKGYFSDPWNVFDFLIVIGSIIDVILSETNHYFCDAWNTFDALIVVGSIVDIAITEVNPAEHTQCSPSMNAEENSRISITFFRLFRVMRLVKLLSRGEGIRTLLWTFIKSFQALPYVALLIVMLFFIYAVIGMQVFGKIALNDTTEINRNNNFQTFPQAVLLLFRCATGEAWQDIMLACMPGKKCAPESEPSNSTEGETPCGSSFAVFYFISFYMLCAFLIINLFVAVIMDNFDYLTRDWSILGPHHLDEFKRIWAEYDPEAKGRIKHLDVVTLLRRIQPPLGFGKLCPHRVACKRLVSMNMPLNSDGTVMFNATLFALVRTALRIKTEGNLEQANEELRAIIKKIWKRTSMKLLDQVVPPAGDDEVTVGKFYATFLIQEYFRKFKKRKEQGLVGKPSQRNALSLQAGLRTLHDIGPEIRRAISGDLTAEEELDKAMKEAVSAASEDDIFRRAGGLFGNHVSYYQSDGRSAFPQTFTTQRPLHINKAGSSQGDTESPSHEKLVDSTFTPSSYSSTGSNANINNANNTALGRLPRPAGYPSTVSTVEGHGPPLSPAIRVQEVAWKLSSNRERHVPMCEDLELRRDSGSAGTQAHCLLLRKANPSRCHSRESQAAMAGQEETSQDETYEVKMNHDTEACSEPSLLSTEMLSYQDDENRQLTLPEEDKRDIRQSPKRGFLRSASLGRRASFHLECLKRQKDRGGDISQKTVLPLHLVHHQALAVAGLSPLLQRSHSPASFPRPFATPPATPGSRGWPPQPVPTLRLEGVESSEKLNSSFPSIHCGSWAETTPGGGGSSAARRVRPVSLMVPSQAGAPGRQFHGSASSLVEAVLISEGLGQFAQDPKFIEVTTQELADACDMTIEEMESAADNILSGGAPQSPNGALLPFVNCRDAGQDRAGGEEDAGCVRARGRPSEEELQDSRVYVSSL

For CCCCN(CCCC)C(=O)Nc1cc(C(=O)O)nc2cc(Cl)cc(Cl)c12 [BCUKA, 5,7-dichloro-4-(3,3-dibutylureido)quinoline-2-carboxylic acid], the “Mechanical pain threshold, ratio to baseline” value [1] was “significantly reversed the drop in mechanical pain threshold”, the Ki [2] was over 10 µM and the Ki [3] was over 10 µM. The Ki [4] was over 10 µM, the Ki [5] was over 10 µM and the Ki [6] was over 10 µM. For the same molecule, the Ki [7] was over 10 µM, the Ki [8] was over 10 µM and the Ki [9] was over 10 µM. The Ki [10] was over 10 µM, the Ki [11] was over 10 µM and the “Mechanical pain threshold, ratio to baseline” value [12] was “reversed the mechanical pain threshold to a level not significantly different from baseline”. For the same molecule, the Ki [13] was over 10 µM, the Ki [14] was 0.63 ± 0.04 µM and the Ki [15] was over 10 µM. For the same molecule, the Ki [16] was over 10 µM.

In the case of CC(C)[C@@H](CN1CC[C@@](C)(c2cccc(O)c2)[C@@H](C)C1)NC(=O)[C@H]1Cc2ccc(O)cc2CN1 [JDTiC], the Ki [17] is given as 0.0121 ± 0.00147 µM.

In the case of CN1C(=O)CN=C(c2ccccc2F)c2cc([N+](=O)[O-])ccc21 [[^3H]Flunitrazepam], the Kd [18] is given as 0.0005 µM.

For NCc1cc(=O)[nH]o1 [[^3H]Muscimol], the Kd [19] is given as 0.005 µM.
